# Reference: paper PMC7819943, “Rice protein-binding microarrays: a tool to detect cis-acting elements near promoter regions in rice”
# This is one part of the list.
# Molecular target: T1, OsWOX13 (Oryza sativa, UniProt Q5QMM3 1-267)
# T1 sequence: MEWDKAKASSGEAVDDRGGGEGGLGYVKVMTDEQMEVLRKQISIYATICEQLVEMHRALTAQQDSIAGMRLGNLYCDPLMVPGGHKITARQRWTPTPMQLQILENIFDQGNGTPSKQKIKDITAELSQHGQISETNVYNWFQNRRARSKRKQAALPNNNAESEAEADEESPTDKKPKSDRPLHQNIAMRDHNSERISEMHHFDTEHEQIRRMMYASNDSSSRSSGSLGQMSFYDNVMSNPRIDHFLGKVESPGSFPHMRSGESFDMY
# Assay: protein-binding microarray (RPBM); PBS, 2% BSA, 51.3 ng/ul salmon testes DNA, 50 uM zinc acetate, 200 nM TF, 25 C, 1 h; high values mean tight binding
# Conditions: protein: recombinant; tags: N-terminal polyhistidine and DsRed monomer fusion (pET32a); label: CyDye5-dUTP incorporated in the synthesized complementary strand; 3' TTTTT single-stranded linker to array surface; dsDNA, one strand shown
# In short: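 The binding signal is fluorescence intensity per feature, in arbitrary units, read on an Axon 4000B scanner. Polyhistidine- and DsRed-tagged transcription factors (N-terminal fusions) from E. coli BL21-CodonPlus were purified on Ni–NTA and applied at 200 nM for 1 h at 25 °C to a double-stranded, BSA-blocked custom Agilent array in buffer with 50 µM zinc acetate.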
row,Sequence,binding signal
1,ACTTTCAATTGACAGAATTACGTCTGGAACATGAAGTTATCGGAGTCACCTAGTGCAG,29000 fluorescence intensity (a.u.)
2,AACTGAAGCCTTAATTAATTTCTCTATCCAGGTAGCGCCCCGGAGTCACCTAGTGCAG,11100 fluorescence intensity (a.u.)
3,GTTTCCTGACGTTTGATTTGCTTTGTATTGCAGGCTGTGACGGAGTCACCTAGTGCAG,4990 fluorescence intensity (a.u.)
4,AGAGTTAAAATAGACTGCGGGCCTGTTTAGTTCATACCAACGGAGTCACCTAGTGCAG,4180 fluorescence intensity (a.u.)
5,TGATTGTATAATACAATTACAATATGATTGTATTTGGAAGCGGAGTCACCTAGTGCAG,4380 fluorescence intensity (a.u.)
6,TATTTAATTTATCTCTCATTACATTTTGAATATATGCAGACGGAGTCACCTAGTGCAG,30400 fluorescence intensity (a.u.)
7,TATTACATGCAAATTATAGTGTAATTATACTACGATTGTACGGAGTCACCTAGTGCAG,14900 fluorescence intensity (a.u.)
8,ATCTAATTTTGGAATTTTAAGTTTAAAACAAGTCTCCAACCGGAGTCACCTAGTGCAG,13500 fluorescence intensity (a.u.)
9,GGCAAATTTTAGTAGGGTAACAATCCAAATTGGCCCAGAGCGGAGTCACCTAGTGCAG,4180 fluorescence intensity (a.u.)
10,TTGAATGACAATTAGTTCGAAACCAGAACATACTAATGACCGGAGTCACCTAGTGCAG,20600 fluorescence intensity (a.u.)
11,ATCCCGAGTACATCAATAGTTCAATCATCAAATACAGGAACGGAGTCACCTAGTGCAG,3230 fluorescence intensity (a.u.)
12,CACTTGGTAATTACTTCTACTATGTCATCCTTATCATAATCGGAGTCACCTAGTGCAG,17700 fluorescence intensity (a.u.)
13,TAATATCACCGTAAATTTACCCTGTTAGGATCAGTACAAACGGAGTCACCTAGTGCAG,5610 fluorescence intensity (a.u.)
14,AACAAAATTCTAACAGTTTGACAGGATAGCACCAAGAGCACGGAGTCACCTAGTGCAG,4590 fluorescence intensity (a.u.)
15,CTAAACATAATTAGCATACTATGACATCAATAGAAACGTTCGGAGTCACCTAGTGCAG,35100 fluorescence intensity (a.u.)
16,TGTTATAGTGTAATTATATATAATTACATTATAGCATATACGGAGTCACCTAGTGCAG,21600 fluorescence intensity (a.u.)
17,TTGATTAATTCATTAATCGATCTTGCTCCTCTCGCGGCCCCGGAGTCACCTAGTGCAG,38500 fluorescence intensity (a.u.)
18,AAACTATATAATTAGAAACACGAGGATGATAATGTTTGGTCGGAGTCACCTAGTGCAG,4910 fluorescence intensity (a.u.)
19,GTTAGACTGACATGTGGGGCAGCGTGGGTTCCACCATTATCGGAGTCACCTAGTGCAG,6330 fluorescence intensity (a.u.)
20,AATCAATCAATCTGACGGAAACCACGCATTTTGCAACTTGCGGAGTCACCTAGTGCAG,46300 fluorescence intensity (a.u.)
21,CTAGTTTACACATTGATTATTATCGACCGTGAATATTTTACGGAGTCACCTAGTGCAG,5360 fluorescence intensity (a.u.)
22,GTAATTACTTAATCCATCCCCTATTCAAAAGTTTGTGAATCGGAGTCACCTAGTGCAG,5790 fluorescence intensity (a.u.)
23,TTTAGGGAATTGCAGTTGACTGACTTTAGCAAATACGAACCGGAGTCACCTAGTGCAG,6470 fluorescence intensity (a.u.)
